# Laboratory results from PubChem BioAssay AID485344 (National Center for Advancing Translational Sciences (NCATS), 2010).
# Hit rate of the full screen: of about 340,000 compounds, about 6,900 (2%) were called active. Cut-off read from the data, not from the text of the source: active = inhibition above about 30%; inactive = below that, where a call was filed. Only a part is listed here, and it is no random draw. The source gives no active or inactive call for entries shown without one.
# Biological target: D(2) dopamine receptor (Homo sapiens) (UniProt P14416)
# Chain of UniProt P14416 (P14416 whole entry, looked up): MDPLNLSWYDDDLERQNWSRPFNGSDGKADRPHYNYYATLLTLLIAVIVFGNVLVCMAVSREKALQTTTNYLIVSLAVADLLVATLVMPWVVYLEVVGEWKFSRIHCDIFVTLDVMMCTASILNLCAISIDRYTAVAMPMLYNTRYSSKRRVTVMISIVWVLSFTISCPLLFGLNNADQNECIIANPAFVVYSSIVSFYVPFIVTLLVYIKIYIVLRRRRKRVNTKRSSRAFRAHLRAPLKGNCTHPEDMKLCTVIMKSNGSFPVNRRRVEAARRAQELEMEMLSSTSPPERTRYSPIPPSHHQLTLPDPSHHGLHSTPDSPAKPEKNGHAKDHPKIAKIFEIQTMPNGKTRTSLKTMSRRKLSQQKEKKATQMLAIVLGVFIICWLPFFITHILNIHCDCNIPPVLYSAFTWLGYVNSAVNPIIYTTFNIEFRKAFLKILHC
# Assay: HTS Assay for Allosteric Antagonists of the Human D2 Dopamine Receptor: Primary Screen for Antagonists; note: 0% is about no effect
# Settings: HEK293 TREx D2 cells, calcium flux, dopamine EC80; at 10 µM; stronger effect = higher value
# Method in brief: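 Read-out: kinetic calcium fluorescence (1 cycle/s) in inducible HEK293 T-REx D2 cells after an EC80 dopamine addition that followed 180 s compound preincubation. Loss of the dopamine response indicates antagonism.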
row,SMILES,inhibition
1,CC1(C(=O)Nc2cccc(Br)c2)Cc2ccccc2C(=O)O1 (stereo not given),-8.74%
2,CCc1ccc(NC(=O)CSc2nccn2-c2ccc(OC)cc2)cc1,11.2%
3,COCCCNC(=O)CCC(=O)N1Cc2cccc(OC)c2Oc2ncccc21,6.52%
4,COc1cc2c(cc1OC)C(COc1ccc3c(C)cc(=O)oc3c1)N(C(=O)c1cccc(C)c1)CC2 (stereo not given),9.9%
5,COc1ccc(Cn2ccn(Cc3cccc(C)c3)c(=O)c2=O)cc1,4.66%
6,CCOc1ccc(-n2c(SCC(=O)NCC3CCCO3)nc3c([nH]c4ccccc43)c2=O)cc1 (stereo not given),0.12%
7,O=C(NCCc1ccccc1)c1ccc2c(c1)N(Cc1c(F)cccc1Cl)C(=O)CS2,14.4%
8,Cn1c(=O)c(=O)n(C)c2cc(S(=O)(=O)N3CCCC3C(=O)Nc3ccccc3F)ccc21 (stereo not given),-15%
9,COc1ccc(NC(=O)CSc2nncn3c2cc2oc(C)cc23)cc1OC,-0.714%
10,Cc1ccc(CCNC(=O)C(NS(=O)(=O)c2ccc3c(c2)oc(=O)n3C)C(C)C)cc1 (stereo not given),-8.32%
11,CCOC(=O)CSc1ccc2nnc(CCNS(=O)(=O)c3ccccc3)n2n1,15.6%
12,Cc1ccc(N(CC(=O)N2CCN(c3ccccc3F)CC2)S(=O)(=O)c2c(C)noc2C)cc1,-18.1%
13,COc1cc2c(cc1OC)C(c1ccc(F)cc1)N(c1cccc(C#N)c1)C(=O)C2 (stereo not given),-0.417%
14,O=C(Nc1cccc(C(=O)OCc2cc(=O)n3nc(C4CC4)sc3n2)c1)c1cccc(F)c1,0.176%
15,Cc1ccc(S(=O)(=O)c2nc(-c3cccs3)oc2SC(C)c2ccccc2)cc1 (stereo not given),6.41%
16,CCOC(=O)c1noc2ncn(CC(=O)Nc3ccc(OC)c(Cl)c3)c(=O)c12,2.62%
17,CCOc1ccc(CC(=O)NCCS(=O)(=O)N2CCN(c3ccccc3OC)CC2)cc1,28%
18,CCS(=O)(=O)N1CCc2cc(C(=O)N3CCN(c4ccccc4)CC3)ccc21,-26.8%
19,CCCCC(=O)Nc1cc(-c2nc3ccccc3o2)ccc1OC,-7.4%
20,CCOC(=O)C1CCCN(Cc2nc(N)nc(Nc3ccccc3OC)n2)C1 (stereo not given),active: 34.4%
21,COc1ccc(C)cc1NC(=O)c1ccc2c(c1)N(Cc1cccc(Cl)c1)C(=O)c1ccccc1S2=O (stereo not given),11.7%
22,O=[N+]([O-])c1ccc(Cl)c(S(=O)(=O)Nc2cccc(-c3ccc(N4CCOCC4)nn3)c2)c1,active: 34.2%
23,Cc1ccc(C)c(NC(=O)c2ccc(=O)n(Cc3ccc(F)cc3)c2)c1,-1.65%
24,Clc1cccc(N2CCN(c3nc4ccccc4c4nc(-c5cccnc5)nn34)CC2)c1,-5.27%

row,SMILES,inhibition
1,CC(=O)N1c2ccc(S(=O)(=O)N3CCCCCC3)cc2CC1C(=O)NCc1cccc(F)c1 (stereo not given),13%
2,CC1Oc2ccccc2N(CC(=O)NC2CC2)C1=O (stereo not given),active: 32.7%
3,COc1cc(C)ccc1OCCSc1nc2ccc(NC(=O)c3ccc4c(c3)OCO4)cc2s1,-2.46%
4,CCOC(=O)c1cc(-c2ccccc2)n(CCC(=O)Nc2ccc(OC)c(Cl)c2)c1C,-0.463%
5,Cc1ccccc1-c1nc2c(c(SCc3cccc(Cl)c3)n1)Cc1c(CO)cnc(C)c1O2,-8.43%
6,CCc1ccc(NC(=O)Cn2c(=O)n(CCCC(=O)NCc3ccccc3OC)c(=O)c3ccccc32)cc1,-3.76%
7,CC(C)N(C(=O)N1CCN(c2ccnc3cc(Cl)ccc23)CC1)C(C)C,active: 30.5%
8,COc1cc(-c2nc(Cn3nnc(C(=O)Nc4ccccc4C)c3C)c(C)o2)cc(OC)c1OC,-8.14%
9,CCOc1ccc(-c2cc(C(=O)NCc3ccc(OCC)c(OC)c3)[nH]n2)cc1,-2.15%
10,COc1ccc(-c2ccc(NS(=O)(=O)c3ccccc3)cc2)nn1,-3.87%
11,CCc1cccc(CC)c1NC(=O)CCS(=O)(=O)c1ccc(Br)cc1,8.43%
12,O=c1c2sc3ccccc3c2n(Cc2ccc(F)cc2)c(=O)n1Cc1ccccc1,13.2%
13,Cc1cc(C)n2nc(SCC(=O)Nc3ccc(O)cc3)nc2n1,6.08%
14,COc1ccc2[nH]cc(CCNC(=O)Nc3c(C)cccc3C)c2c1,12.5%
15,Cc1ccc(NC(=O)CSc2ncccc2C(=O)Oc2ccccc2Cl)cc1Cl,17.9%
16,COc1cccc(NC(=O)c2oc3ccccc3c2NC(=O)COc2ccccc2C)c1,3.18%
17,COc1ccc(-c2nnn3c2nc(NCc2ccccc2)c2ccccc23)cc1,-8.8%
18,Cc1ccn2c(=O)c(C(=O)Nc3ccc(F)c(C(F)(F)F)c3)cnc2c1,19.5%
19,O=C(Cn1cc(S(=O)(=O)c2ccc(F)cc2)c(=O)c2cc3c(cc21)OCO3)Nc1ccccc1,22.8%
20,Cc1oc(-c2ccccc2F)nc1CN1CCC(C(=O)NCCc2ccc(Cl)cc2)CC1,10.7%
21,CCOc1ccc(-c2nonc2NC(=O)c2oc3ccc(Cl)cc3c2C)cc1,-22.4%
22,Fc1ccc(CN2CCN(c3ncccn3)CC2)c(F)c1,active: 79.5%
23,COc1ccc(-c2nn(-c3ccccc3)cc2C(=O)NCCCn2ccnc2)cc1,active: 30%
24,CCOc1ccc(N(CC)C(=O)c2cc3c(=O)oc4ccccc4c3s2)cc1,10.4%

row,SMILES,inhibition
1,CCOc1ccc(CN2CCN(S(=O)(=O)c3ccc(Cl)cc3)CC2)cc1,10.5%
2,O=C(CCCN1CCc2[nH]c3ccc(F)cc3c2C1)c1ccc(F)cc1,active: 92.7%
3,CN1CCN(CC/C=C2/c3ccccc3Sc3ccc(S(=O)(=O)N(C)C)cc32)CC1,active: 80%
4,O=c1oc2c(F)cc(F)cc2cc1S(=O)(=O)c1ccc(F)cc1,10.8%
5,Cc1nc(C)c(CCNS(=O)(=O)c2ccc(C)c(C)c2)s1,1.8%
6,Cc1ccc(C(=O)Nc2cccc(C(=O)N/N=C/c3ccc(F)cc3)c2)cc1,active: 31.3%
7,Cc1ccc(Cc2nc3ccccc3nc2SCC(=O)N2CCCCC2)cc1,-2.73%
8,Cc1ccc(-n2c(=O)c3c(c4cc(C)ccc4n3C)n(CC(=O)NCCC3=CCCCC3)c2=O)cc1,-8.58%
9,COC(=O)c1cc2oc(C)cc2n1Cc1cccc(Cl)c1,10.3%
10,O=c1c2oc3ccccc3c2n(Cc2cccc(Cl)c2)c(=O)n1Cc1ccc2c(c1)OCO2,-0.83%
11,COc1ccccc1OCC(=O)NCC1(N2CCOCC2)CCCCC1,2.44%
12,O=C(NCc1cccc(Cl)c1)c1ccc(CS(=O)Cc2ccccc2Cl)o1 (stereo not given),12.5%
13,O=C(NCc1ccccc1F)C(=O)NCC(c1cccs1)S(=O)(=O)c1cccs1 (stereo not given),-3.54%
14,CC1(C)ON(C2CCCCC2)[C@H]2c3nc4ccccc4n3C[C@H]21,active: 39%
15,CC(C)Cc1ccc(S(=O)(=O)Nc2ccc3[nH]c(=O)[nH]c3c2)cc1,-10%
16,CCOc1ccc(OCC)c(NC(=O)c2cnc3c(-c4ccccc4)c(C)nn3c2C)c1,14.9%
17,CCCn1c(C)nc2cc(Cl)c(N3CCN(c4nc(-c5ccc(C)cc5)cs4)CC3)cc21,active: 40%
18,COc1ccccc1N1CCN(Cc2cnc3ccc(Cl)cn23)CC1,active: 55.2%
19,COc1ccc(C2C(C#N)=C(N)Oc3n[nH]c(C)c32)cc1CN1CCN(c2ccc(F)cc2)CC1 (stereo not given),active: 53.9%
20,COc1ccc(NC(=O)CC2SC(N3CCCCC3)=NC2=O)cc1OC (stereo not given),active: 40.6%
21,CCC(=O)Nc1ccc2nc(SCCOc3cccc(C)c3)sc2c1,-25.6%
22,CC(=O)NC12CC3CC(C1)CC(C(=O)OCC(=O)Nc1c(F)cccc1F)(C3)C2,active: 37%
23,CC(C)(C)NC(=O)Cn1cc(S(=O)(=O)Cc2ccc(F)cc2)c2ccccc21,11.6%
24,COCCn1c(SCC(=O)c2ccc(OC)cc2)nc2cc(C(=O)NC3CCCC3)ccc2c1=O,3.45%

row,SMILES,inhibition
1,CC1CCN(c2ccc(-c3cccc(NS(=O)(=O)c4ccc(Cl)s4)c3)nn2)CC1,-0.016%
2,CCOC(=O)CNC(c1ccccc1)c1cc(Br)ccc1NC(=O)c1ccc(Cl)cc1 (stereo not given),-0.819%
3,Cc1ccc(S(=O)(=O)Nc2ccc(-c3ccc(N4CCCCCC4)nn3)cc2)cc1C,-0.947%
4,C#CCSc1nc2sc3c(c2c(=O)n1-c1cccc(OC)c1)CCN(C(C)=O)C3,9.5%
5,COc1cc(Cl)c(NC(=O)c2cc(S(=O)(=O)N3CCOCC3)cn2C)c(OC)c1,1.47%
6,CCOC(=O)c1ccc(-c2ccc(/C=C(\C#N)C(=O)Nc3c(C)cccc3Cl)o2)cc1,-8.6%
7,CCc1nn2c(-c3ccco3)ccnc2c1-c1ccc(F)cc1,5.31%
8,Cn1c(=O)[nH]c(=O)c2c1nc(N(CCO)Cc1ccccc1)n2Cc1ccccc1Cl,active: 73.5%
9,COc1ccc(-c2n[nH]c3c2C(c2ccc(Cl)cc2Cl)NC3=O)cc1 (stereo not given),0.585%
10,CCN(CCCNC(=O)c1ccc(Sc2ccc(C)cc2)c(NC(C)=O)c1)c1cccc(C)c1,16.3%
11,Cc1ccc2oc(-c3ccc(C)c(NC(=O)c4ccc5c(c4)OCCO5)c3)nc2c1,5.61%
12,COc1ccc(NC(=O)Cn2c(=O)n(-c3cccc(C)c3)c(=O)c3c2c2cc(C)ccc2n3C)cc1OC,-3.32%
13,CCOc1cccc(C(=O)Nc2ccc3oc(-c4ccc(C(C)(C)C)cc4)nc3c2)c1,1.13%
14,COc1ccc(CN2CCC(CO)(Cc3ccccc3)CC2)cc1Cn1cccn1,active: 37%
15,Cc1ccc(F)cc1NC(=O)CCc1c(C)nn(-c2ccc(N3CCCCC3)nn2)c1C,-5.27%
16,CC(CCO)Nc1nc2c(c(=O)n(C)c(=O)n2C)n1Cc1ccc(Br)cc1 (stereo not given),5.05%
17,Cc1cc2c(n1-c1ccc(C(=O)NCC(C)c3ccccc3)cc1)CCCC2 (stereo not given),26.7%
18,Cc1cccc(Nc2nc(Nc3cccc(C)c3)nc(N3CCOCC3)n2)c1,7.49%
19,COc1cc(OC)c(NC(=O)CSC2=Nc3ccccc3N=C(c3ccc(F)cc3)C2)cc1Cl,5.52%
20,CCOc1ccc(CNC(=O)c2ccc3c(c2)sc2nc(-c4ccc(OC)cc4)cn23)cc1,3.64%
21,COc1ccc(S(=O)(=O)N(C)CC(=O)NCc2ccco2)cc1OC,active: 33.7%
22,Cc1sc(C2C(C#N)=C(N)N(c3cccc(Cl)c3)C3=C2C(=O)CCC3)cc1CN1CCOCC1 (stereo not given),6.19%
23,CCOc1ccc(-c2nc(-c3ccccc3C)no2)cc1,active: 52.9%
